From the supplement of paper PMC7335073
Over roughly 4,100 sequences, “relative CpG methylation activity (normalised to average over all NNNCGNNN flanks)” has its median near 0.87; the highest 2% begin near 2.4. The list shows a part of the results.

Target: DNMT3A catalytic domain (mouse) (UniProt O88508)
Assay: relative CpG methylation activity (normalised to average over all NNNCGNNN flanks) (relative (1 = mean)); higher = more methylation of the central CpG
Settings: system: in vitro, murine catalytic domain; CpG state: hemimethylated substrate pool; residues: 608-908
Protocol: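 Deep enzymology: a pool of dsDNA substrates with a central CpG flanked by 10 random nucleotides on each side was methylated by the murine DNMT3A or DNMT3B catalytic domain (0.8 mM SAM, 37 °C, 60 min). Methylation was then read out by hairpin ligation, bisulfite conversion and NGS. Values are the average methylation of each NNNCGNNN context (±3 flanks; the outer flanks are random and averaged over), normalised to the overall mean, so 1 = average activity.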

Row | Sequence | relative CpG methylation activity
1 | TGACGGCG | 0.341
2 | AAACGGCA | 0.714
3 | CTCCGCGG | 0.426
4 | CCGCGGAG | 0.286
5 | TTTCGACA | 1.06
6 | AGCCGCAT | 0.699
7 | TCCCGAGC | 1.35
8 | GTGCGTGG | 0.603
9 | CCACGATA | 1.05
10 | AGACGATT | 0.791
11 | GCGCGACC | 1.12
12 | GGTCGCTG | 0.804
13 | ATACGTCG | 2.26
14 | AACCGCGA | 0.728
15 | TCTCGAAT | 0.62
16 | TCCCGCAT | 0.92
17 | TGTCGGTT | 0.185
18 | GCTCGCTG | 1.12
19 | TTACGAGT | 1.76
20 | GTTCGGCA | 0.789
21 | AAGCGGAT | 0.296
22 | CCACGCAT | 1.41
23 | GCTCGGGA | 0.658
24 | TGACGACG | 0.449
25 | AGACGTAA | 1.02

Row | Sequence | relative CpG methylation activity
26 | AACCGAAG | 0.475
27 | CATCGCCC | 1.88
28 | TGTCGGAT | 0.585
29 | GCCCGAAT | 0.964
30 | ATGCGTAT | 1.15
31 | GTACGCGA | 1.39
32 | GAACGCAC | 1.04
33 | ATCCGTTA | 1.61
34 | GGTCGAAG | 0.142
35 | CTTCGTAC | 1.42
36 | AAACGTAG | 0.536
37 | ACCCGCCT | 2.44
38 | GGTCGCGC | 0.806
39 | TGACGTCA | 0.989
40 | CCGCGATT | 0.805
41 | ACGCGGCG | 0.363
42 | TGCCGTGT | 0.128
43 | CATCGGCT | 0.8
44 | TAGCGGTA | 0.399
45 | AGACGCTT | 1.61
46 | ATACGTAG | 1.37
47 | AAACGTAC | 0.553
48 | TCTCGTAA | 1.88
49 | AGTCGCCA | 0.994
50 | CATCGTCG | 1.01

Row | Sequence | relative CpG methylation activity
51 | TGTCGATG | 0.316
52 | CTACGTCG | 2.46
53 | TCTCGCCT | 1.73
54 | GCCCGCGT | 0.742
55 | GAACGAGA | 0.69
56 | CAACGCGA | 0.48
57 | ATTCGGTC | 1.24
58 | AAACGTCA | 1.14
59 | CCACGACA | 1.25
60 | TTGCGGCA | 1.01
61 | GTGCGAAC | 1.72
62 | CCCCGTGC | 0.871
63 | ACACGTAT | 1.34
64 | TTACGGGA | 1.68
65 | CCGCGAGT | 0.847
66 | TCACGCAT | 1.65
67 | GAGCGGTT | 0.614
68 | TAACGGAG | 0.496
69 | ACGCGGCA | 1.07
70 | GAGCGGGG | 0.227
71 | ACGCGAAT | 0.712
72 | TTGCGTCC | 2.39
73 | AGTCGGTG | 0.338
74 | GCTCGAGC | 1.13
75 | CTCCGCTT | 2.3

Row | Sequence | relative CpG methylation activity
76 | ACCCGGCG | 0.839
77 | TGTCGCTT | 1.65
78 | CAGCGGCA | 0.544
79 | AATCGGAC | 0.439
80 | AGGCGTCG | 1.11
81 | CCCCGCCA | 1.91
82 | TGGCGACG | 0.592
83 | GGACGATG | 0.974
84 | ACTCGTAC | 1.01
85 | CCCCGATA | 1.02
86 | ATCCGATC | 1.9
87 | GCGCGCCG | 1.96
88 | CCCCGAGA | 1.15
89 | AACCGATG | 0.51
90 | GCCCGACA | 1.42
91 | TTACGGTG | 1.05
92 | CTTCGCGG | 0.357
93 | CAGCGCCC | 1.19
94 | ATCCGCCA | 2.4
95 | CGCCGTTA | 0.838
96 | CGTCGTCT | 0.702
97 | AGTCGAAT | 0.376
98 | AACCGTTC | 1.16
99 | CATCGAAC | 0.962
100 | ATACGAAC | 2.03

Row | Sequence | relative CpG methylation activity
101 | ACTCGGAG | 0.303
102 | GTCCGAAT | 1.47
103 | GCACGGTA | 0.912
104 | GCCCGCAC | 1.15
105 | TATCGAAG | 0.163
106 | ACTCGCTA | 1.08
107 | GCCCGGAC | 0.874
108 | TAGCGCTC | 0.977
109 | AATCGTCG | 0.441
110 | CCCCGAAA | 1.36
111 | GGCCGAGC | 0.99
112 | ACACGCCT | 2.44
113 | GTACGTAT | 1.2
114 | GTCCGAAG | 1.03
115 | ACGCGATC | 1.35
116 | TTACGGGG | 0.917
117 | GCTCGACC | 1
118 | GTCCGCCC | 2.41
119 | AGGCGGTT | 0.312
120 | ACGCGATG | 0.763
121 | TCGCGTCT | 1.16
122 | GACCGAGT | 0.88
123 | TGACGCGA | 0.348
124 | CAACGTGT | 0.264
125 | GAACGTAT | 0.58

Row | Sequence | relative CpG methylation activity
126 | GGGCGGGT | 0.571
127 | CCGCGTCT | 1.39
128 | GATCGACC | 0.609
129 | ACCCGACC | 1.54
130 | GCGCGAAT | 0.817
131 | AGACGTCG | 1.52
132 | GCACGGAG | 0.34
133 | GTTCGAAG | 0.294
134 | GAACGTAA | 0.932
135 | TAACGAAG | 0.365
136 | CATCGTTA | 0.481
137 | CCTCGAAT | 0.708
138 | GCACGGCC | 1.84
139 | CCCCGCAT | 1.12
140 | TGTCGGTC | 0.542
141 | TTCCGGTC | 1.9
142 | TCACGTCT | 1.96
143 | ACTCGAGC | 1.62
144 | TTGCGATA | 1.13
145 | ATTCGACT | 0.892
146 | CCCCGAAC | 1.69
147 | GATCGCCT | 1.08
148 | TAGCGTTA | 0.317
149 | ACCCGTGA | 0.758
150 | AGCCGCTG | 0.808

Row | Sequence | relative CpG methylation activity
151 | GAACGAGG | 0.366
152 | TAGCGGTC | 0.479
153 | AGCCGCTC | 0.894
154 | ACTCGTGT | 0.429
155 | GTTCGATT | 1.15
156 | TCTCGATC | 1.24
157 | CTGCGGGC | 1.65
158 | CTGCGGCC | 1.59
159 | GTTCGCAA | 1.24
160 | AATCGGGT | 0.351
161 | CGCCGGCG | 0.625
162 | ACACGGGG | 0.593
163 | TGTCGCCC | 1.85
164 | GTGCGCCG | 1.79
165 | CCGCGGAC | 0.958
166 | GGACGACA | 0.678
167 | TGACGCCT | 1.38
168 | TAGCGGCT | 0.556
169 | TGTCGGGG | 0.025
170 | TATCGCAA | 0.653
171 | CGCCGCGC | 0.549
172 | AAACGCCC | 1.3
